# From the supplement of paper PMC3334620
# Over roughly 33,000 sequences, “E-score (-0.5 to 0.5)” has its median near -0.017; the highest 2% begin near 0.3. Some of the results follow.
# Molecular target: T1, Sut1 (UniProt P53032)
# T1 sequence: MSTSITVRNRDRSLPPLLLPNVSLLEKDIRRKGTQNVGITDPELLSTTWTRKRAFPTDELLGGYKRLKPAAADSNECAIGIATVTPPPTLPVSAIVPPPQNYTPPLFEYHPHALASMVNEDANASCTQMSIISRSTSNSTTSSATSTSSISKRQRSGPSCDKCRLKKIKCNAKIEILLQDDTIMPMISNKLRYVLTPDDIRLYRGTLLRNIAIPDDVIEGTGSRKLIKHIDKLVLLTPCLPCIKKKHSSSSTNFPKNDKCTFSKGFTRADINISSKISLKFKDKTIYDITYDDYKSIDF
# Test: PBM E-score (8-mer binding enrichment) (E-score (-0.5 to 0.5)); higher = stronger / more preferred TF binding; most listed sequences are background and not binding sites
# Details: protein concentration: 200 nM; construct: GST-full length
# Outline: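 Using PURExpress in vitro transcription/translation, GST-tagged yeast transcription factors were made in full-length or DNA-binding-domain form. These were applied at about 100-200 nM to double-stranded universal all-10-mer Agilent arrays, and bound protein was detected with fluorescent anti-GST. Scans were normalised with masliner before the Universal PBM Analysis Suite assigned E-scores to ungapped eight-base words pooled with their reverse complements.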
row,Sequence,PBM E-score
1,GCAGGACC,-0.147
2,GCCGGAGC,0.284
3,CCCATTCG,-0.0443
4,GTTTCCGA,0.332
5,CCACTATA,-0.00853
6,AATATGCG,-0.00378
7,AAGCCCTG,-0.241
8,AATTTTGC,0.0464
9,GAAATGAC,0.0699
10,AGAATGCC,0.0192
11,TGGTCGAA,-0.258
12,AGTGAACA,0.0388
13,TAGAAATA,0.12
14,CGCTTTAG,-0.0904
15,GTTGTTGA,0.0996
16,GATTTGTA,0.109
17,ACCTGTCC,-0.0505
18,CTGGCCAC,-0.213
19,GATCTATA,0.133
20,AGTTAGCC,0.177
21,CAAACCCG,-0.17
22,ACGGATAG,0.0603
23,GGAACTGA,-0.129
24,CGCTTCTC,-0.05
25,GACTAATA,0.196

row,Sequence,PBM E-score
1,CCAGAGCC,-0.166
2,ATGTAAGG,-0.015
3,CAGCGTCG,-0.0369
4,ACGGCCGA,-0.0794
5,TTAAGGAA,0.207
6,CTAGATCA,-0.139
7,ACCGTGAG,-0.193
8,AGGAAAGG,-0.294
9,ACACGAAG,0.0687
10,CTTGCTGC,-0.149
11,CGTTCAAC,0.0558
12,GATGCAAC,-0.103
13,AGCTCATC,-0.086
14,AACTCGAA,-0.0516
15,GACGGGCA,-0.28
16,CGCAGTAC,-0.164
17,CCTAACAG,-0.0185
18,TCGCCTAA,-0.0306
19,GCTTATTA,0.0467
20,CATGGCTA,0.0513
21,ACGTTATG,0.0828
22,GGACAGAA,-0.00255
23,AAACTAGT,0.0427
24,GATTCCGA,0.337
25,CGCTCTTC,-0.207

row,Sequence,PBM E-score
1,AAAGATTA,0.306
2,ATGAGCGC,-0.0253
3,AGCCGCGA,-0.0685
4,ATACGAGG,-0.165
5,CGTCGCGC,-0.132
6,GGACGATA,-0.00971
7,CATCCCGC,-0.212
8,ACTCGCCG,0.152
9,GTACACCA,-0.104
10,CAGACTCA,-0.122
11,GACCCGCC,-0.153
12,GCCAATAC,0.0412
13,AATCAGGA,-0.136
14,AGCTGCCC,-0.124
15,AGCGTAGA,0.0222
16,ATAAGTGA,0.116
17,ACAACGGA,0.335
18,ATCACATG,-0.0223
19,CCCCTCGG,-0.191
20,AGATGGCT,-0.0121
21,AAGCTCAC,-0.0863
22,ATTCATTG,0.108
23,GCTTGCGA,-0.0868
24,ACCACGAC,-0.12
25,CTGATCCC,-0.15

row,Sequence,PBM E-score
1,CTACATAG,0.00166
2,ACGGGACC,-0.112
3,CTCGAGGA,-0.159
4,ACATGGTG,-0.0356
5,AAGAGCAT,-0.0261
6,AGTATCAG,-0.0501
7,ATGGCAAG,-0.2
8,CCCGAACG,0.0466
9,CAAAATGG,0.215
10,AGCGCTTC,0.135
11,ACCCGGGT,-0.0446
12,CACTTGGG,-0.0572
13,TAACGGAA,0.309
14,CGTTACGC,-0.0584
15,TGCCACAA,-0.0221
16,CAACATTC,-0.185
17,CCCCCTTC,-0.401
18,CTAAAAGC,0.0247
19,AAATGTTC,0.139
20,AACCCATG,-0.0261
21,ATTCCGCA,-0.00724
22,CTTTGAGA,0.168
23,CAGCAACC,-0.116
24,TACTATAA,0.306
25,CGAGAGCG,-0.16

row,Sequence,PBM E-score
1,CAGGCGCG,-0.252
2,CCGCTCCG,0.262
3,ACTCGGAG,0.399
4,GTTTACGA,-0.075
5,ACCCATAT,-0.104
6,AACGATGA,0.0705
7,ACCTGATC,-0.177
8,AACGCTTG,-0.135
9,TATCAAGA,0.2
10,ACAGAACC,0.0597
11,TGTATAAA,0.157
12,AAACCCTC,-0.27
13,CTGACTCC,0.215
14,GCACGGTA,-0.169
15,ACGAGAAC,-0.00525
16,CTCTTAAC,0.042
17,ACATTTAA,0.293
18,ACGATATG,0.0604
19,GCCCGCAC,-0.0922
20,ATGTACGC,-0.107
21,GCAATCAC,0.00086
22,AATGAGGC,-0.21
23,ATTCCCAC,-0.152
24,AAAGGCGG,0.0481
25,TAGGCAAA,-0.0422

row,Sequence,PBM E-score
1,GCACTTCC,-0.146
2,CTGATTGA,-0.133
3,AAACCACT,-0.0395
4,GCCCGGAC,0.328
5,AATAGCGA,0.105
6,CCTCCGAA,0.121
7,GAACAGGC,-0.129
8,AATACCTG,-0.0173
9,ACTCGCTA,0.0713
10,AATAGGTC,-0.00254
11,ACCGATTA,0.244
12,ATAAGCGA,0.158
13,ACGCACAC,0.133
14,AGTGTGAT,-0.0982
15,CGTCACAG,-0.211
16,CGGGGAGC,-0.0746
17,CGCACGAC,-0.215
18,ATTGCACA,-0.0797
19,GAGAAGTA,0.148
20,CCTGTCAC,-0.112
21,AACCGTTC,0.183
22,AGGTGGGC,-0.313
23,AGTCGAAT,-0.0274
24,ACCCACCT,-0.259
25,GTGAAGTA,0.0657

row,Sequence,PBM E-score
1,CCCGAGGG,-0.128
2,ATTTCGTC,0.0604
3,TATAACAA,0.319
4,CCTGTACC,-0.193
5,AATGAGAA,0.149
6,CCGACAAC,-0.0367
7,AACTTAGT,-0.0345
8,ATCATGTG,0.0581
9,CGGGATAC,-0.148
10,GGCTCCCC,-0.226
11,ATAATGCG,0.102
12,GCCTGGGA,-0.263
13,ACTGATCG,-0.0985
14,ACGGCAGA,-0.0292
15,CATCGAAC,-0.0517
16,AAACTACA,0.191
17,ACAGAAGC,0.0765
18,GCCATGGC,-0.275
19,CTCCCAGA,-0.211
20,ATACGAAC,0.115
21,GAGGGGGA,-0.29
22,AGCACCCA,-0.101
